Assay results: PubChem BioAssay AID485344 (National Center for Advancing Translational Sciences (NCATS), 2010)
Screen size: about 340,000 compounds; about 6,900 (2%) were called active. Rule as the data show it: active = inhibition above about 30%; inactive = below that, where a call was filed. The list shows a part of the results, in another mix than the full data. Where no call is shown, the source filed none.

Target: D(2) dopamine receptor (Homo sapiens) (UniProt P14416)
Experiment: HTS Assay for Allosteric Antagonists of the Human D2 Dopamine Receptor: Primary Screen for Antagonists; also: 0% is about no effect
Conditions: HEK293 TREx D2 cells, calcium flux, dopamine EC80; at 10 µM; stronger effect = higher value
How it was run: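 Measurement of antagonist activity uses fluorescent calcium dye in inducible HEK293 T-REx D2 cells: 10 s baseline, compound addition with 180 s read, EC80 dopamine addition with a further 180 s read.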

UniProt P14416, sequence (P14416 whole entry, looked up): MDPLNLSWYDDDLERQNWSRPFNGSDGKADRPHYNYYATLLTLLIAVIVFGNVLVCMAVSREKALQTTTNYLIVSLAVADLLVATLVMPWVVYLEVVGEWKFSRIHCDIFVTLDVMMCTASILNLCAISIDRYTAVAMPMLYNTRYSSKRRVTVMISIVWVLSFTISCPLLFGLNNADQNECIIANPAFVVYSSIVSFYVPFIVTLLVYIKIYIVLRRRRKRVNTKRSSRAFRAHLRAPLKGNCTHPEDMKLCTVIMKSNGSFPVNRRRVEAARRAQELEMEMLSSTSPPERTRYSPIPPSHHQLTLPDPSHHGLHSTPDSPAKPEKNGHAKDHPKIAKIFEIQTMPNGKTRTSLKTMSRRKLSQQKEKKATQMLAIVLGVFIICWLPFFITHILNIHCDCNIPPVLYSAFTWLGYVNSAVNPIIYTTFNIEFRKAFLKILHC

Structure (SMILES)	inhibition
Cc1cccc(Cn2c(SCc3ccc(C(=O)NCCc4ccccc4)cc3)nc3cccnc32)c1	3.7%
CCc1nn(CC(=O)N2CCN(c3cccc(C(F)(F)F)c3)CC2)c(=O)c2cc3occc3n12	-0.142%
COc1cccc2cc(-c3nnc(-c4ccc(Cl)cc4)o3)c(=O)oc12	-19.8%
CCCCCn1c(=O)[nH]c2cc(C(=O)Nc3ccc(OC)c(OC)c3)ccc2c1=O	2.6%
COc1cccc(N2CCN(C(=O)Cn3cnc4onc(-c5ccc(F)cc5)c4c3=O)CC2)c1	13.8%
COc1cccc(-c2nc(CS(=O)(=O)CC(=O)NCCCN3CCN(C)CC3)c(C)o2)c1	18.9%
O=C(Nc1ccc(NC(=O)c2ccc(Br)cc2)c(Cl)c1)c1ccc(Br)cc1	2.14%
COc1ccc(CNc2oc(COc3cccc(C)c3)nc2C#N)cc1	-0.945%
COc1ccc(C(=O)Nc2nc3ccc(S(=O)(=O)N4CCCC4)cc3s2)cc1	7.1%
O=C(Nc1ccc(O)c(-c2nc3ccccc3o2)c1)c1cccs1	4.31%
COc1ccc2oc(=O)cc(CN3CCN(C(=O)c4ccccc4)CC3)c2c1	6.75%
Cc1ccc(C)c(CN2C(=O)c3ccccc3Sc3ccc(C(=O)NCCCOC(C)C)cc32)c1	1.96%
O=C(CSc1n[nH]c(-c2ccccc2Cl)n1)N1CCN(c2ccc(F)cc2)CC1	-14.2%
CCOC(=O)c1ccc(N2C(=O)c3n[nH]c(C)c3C2c2ccc(C(C)C)cc2)cc1 (stereo not given)	9.03%
CC(C)c1nn2c(=O)cc(COC(=O)c3ccc(NC(=O)c4ccccc4Cl)cc3)nc2s1	19.3%
Cc1cccc(NS(=O)(=O)c2nnc(NC(=O)C3CCCCC3)s2)c1	-2.25%
COc1ccc(CNC(=O)c2cc(Nc3ccc(OC)cc3OC)nc3ccccc23)cc1	-6.22%
CCOC(=O)c1ccc(NC(=O)c2ccc3c(c2)CCN3S(=O)(=O)c2ccc(Cl)cc2)cc1	17.6%
COc1cc2[nH]c(=O)n(Cc3ccc(C(=O)N4CCN(c5cccc(C)c5C)CC4)cc3)c(=O)c2cc1OC	17%
COc1ccc(CCNC(=O)Cn2nnc(-c3cccc(C(F)(F)F)c3)n2)cc1OC	8.56%

Structure (SMILES)	inhibition
Cc1ccc(-n2nc(CO)c(C(=O)NCCO)n2)cc1	7.45%
CC(CNC(=O)c1ccc(Cn2c(SCc3ccccc3)nc3cccnc32)cc1)c1ccccc1 (stereo not given)	-16.4%
Cc1ccccc1C(=O)NCc1ccc2c(c1)CCN2C(=O)c1ccccc1	-17.8%
CCn1c(=O)c2sccc2n2c(CCCC(=O)N3CCN(c4ccccc4OC)CC3)nnc12	2.64%
CCOC(=O)N1CCC(NC(=O)c2cnn(-c3cccc(C)c3)c2C2CCN(C(=O)OC(C)(C)C)CC2)CC1	-2.49%
O=C(c1ccc(F)cc1)N1c2ncnn2C2(CCCCC2)[C@@H]2CCCC[C@@H]21	6.43%
COc1ccc(CNC(=O)C(=O)NCC(c2cccs2)S(=O)(=O)c2ccc(C)cc2)cc1 (stereo not given)	1.12%
CCn1c(SCC(=O)Nc2cccc(Cl)c2)nnc1-c1nonc1NC(C)=O	2.98%
CCCC(c1nnnn1CS(=O)(=O)c1ccc(C)cc1)N1CCN(c2ccc(F)cc2)CC1 (stereo not given)	active: 59.3%
CCN(CC)c1ccc(NC(=O)c2c(OC)cccc2OC)c(C)c1	active: 33.6%
COC(=O)c1cc(Cl)ccc1NC(=O)Cn1c(C)cc(C)c(C#N)c1=O	17.3%
CC(C)NC(=O)c1nn(C)c2c1CS(=O)(=O)c1ccccc1-2	-27.7%
CC(=O)Nc1ccc2nc(SCc3ccccc3)sc2c1	6.69%
Clc1ccc(CN2CCc3nc(Nc4ccc5c(c4)OCCO5)ncc3C2)cc1	7.75%
COc1ccccc1CNc1nc(-c2ccco2)nn1S(=O)(=O)c1ccc(C)cc1	-5.85%
CCOc1ccccc1CN(CCc1ccc2c(c1)OCO2)Cc1cc(OC)c(OC)cc1OC	-12.4%
CCc1ccc(Sc2cc(C(=O)NCCCN3CCCC(C)C3)c3ccccc3n2)cc1 (stereo not given)	12.3%
Cc1ccc(NC(=O)CN2CCN(C3CCCCC3)C(=O)C2=O)cc1	-23%
Cc1ccccc1CCNCc1c(C(=O)O)c(C)n(Cc2c(F)cccc2Cl)c1C	-5.7%
O=c1cc(COc2cccc(C(F)(F)F)c2)nc2sc3c(n12)CCCC3	-11.2%

Structure (SMILES)	inhibition
Cc1ccc(-n2ncc(C(=O)N3CCN(C4CCCCC4)CC3)c2C2CCN(C(=O)OC(C)(C)C)CC2)cc1	-4.89%
Cc1c(Cl)cccc1NC(=O)CN1C(=O)CSc2ccc(S(=O)(=O)N3CCCC3)cc21	-6.02%
COc1ccccc1/C=C/c1nc(C#N)c(NC(C)c2ccccc2)o1 (stereo not given)	-6.01%
CC(=O)c1ccc(N2CCN(C(=O)Cn3ncc4c3-c3ccccc3OC4)CC2)cc1	-11%
CCOc1ccc(NC(=O)c2cnn3c(C(F)F)cc(-c4ccc(C)cc4)nc23)cc1	4.12%
CC(=O)c1cc(-c2ccc(F)cc2)n(CCC(=O)NCc2ccc(C)cc2)c1C	0.253%
O=C(Nc1cccc(C(=O)N2CCN(c3ccc(F)cc3)CC2)c1)c1nsc2ccccc12	-7.29%
Cc1oc2ccc(O)c(CN3CCN(Cc4ccccc4)CC3)c2c1C(=O)Nc1cccc(Cl)c1C	-2%
CCOC(=O)c1c(NC(=O)c2ccc(S(=O)(=O)N(C)C)cc2)sc2c1CCN(C)C2	14.3%
COc1cc(CNc2cccc(C(=O)O)c2)cc(Br)c1OCC(=O)NC(C)(C)C	active: 59.7%
CCc1ccc(-c2cc(C)no2)cc1S(=O)(=O)NCCc1ccccc1	active: 30.4%
CCCCCCNc1ncnc2c1sc1nc(N3CCOCC3)c3c(c12)CCCC3	-5.9%
COc1ccc(NC(=O)Cn2c(=O)n(CC3CCCO3)c(=O)c3ccccc32)cc1 (stereo not given)	-3.08%
CCCCSCCCNC(=O)c1cc(-c2cccnc2)nc2ccc(S(=O)(=O)N3CCC(C)CC3)cc12	7.22%
COc1cccc(/C=N/NC(=O)CN2CC(c3ccccc3)CC2=O)c1OC (stereo not given)	active: 38.1%
O=C(CSc1nc(=O)[nH]c2c1CCCC2)NCc1ccc(Cl)cc1	-4.15%
CCOC(=O)c1c(NC(=O)/C=C/c2ccc(OC)cc2)sc2c1CCC(C)C2 (stereo not given)	2.79%
Cc1ccccc1C(=O)Nc1sc2c(c1C(=O)N1CCC(C)CC1)CCCC2	-15.9%
CC(=O)NNC(=O)CN1C(=O)/C(=C/c2ccccc2)SC1=S	active: 73.7%
Cc1ccc(-c2csc(NC(=O)C[n+]3cc(-c4ccccc4)n4c3CCC4)n2)cc1	active: 63.8%
